Consider 90 compounds from PubChem BioAssay (NCI).

SMILES strings stand for the structures. Values joined by “and” are separate entries in the source; they are usually repeats but may differ in a detail not shown here. Equal entries are not always repeated.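 96-well plates; 48 h exposure; 5 concentrations. Endpoints by linear interpolation between flanking doses. Not reached: highest tested concentration assigned. GI50 = concentration required for 50% inhibition of growth. TGI denotes the concentration required for complete inhibition of growth.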 Peptide text beside a SMILES is read from it. * marks the point of attachment. Boc = CC(C)(C)OC(=O)*; tBu = CC(C)(C)* Some results are limits rather than exact numbers.

The test system of this test is NCI-H322M lung. As to the kind of experiment: growth of human tumour cells (NCI), 48 h.

Regarding `CC(OC(C)(C)C)C(NC(=O)C(N)CCCCNC(=O)OC(C)(C)C)C(=O)NC(Cc1ccccc1)C(=O)O` (stereo not given) (H-Lys(Boc)-Thr(tBu)-Phe-OH; configuration not given here), the TGI was over 100 µM.

Regarding `N=C(N)c1ccc(OCCCCCOc2ccc(C(=N)N)cc2)cc1`, the GI50 was 12.8 µM and 18.6 µM and 46.7 µM; the TGI is > 50 µM and 56 µM and > 100 µM.

The compound `NCC(Cc1ccccc1)P(=O)(O)O` (stereo not given) displayed a TGI of over 100 µM.

`CO[C@]12C[C@@H](CNC(=O)c3cc(Br)c[nH]3)O[C@H]1NC(=O)N2` had a TGI of over 100 µM.

Take `CC(=O)OC1COC(Oc2c(C)c3c4c(c2O)[C@@H](C)CC[C@@H]4[C@@H](C)C[C@H]3C=C(C)C)C(O)C1O` (stereo not given in full): the GI50 is 13.6 µM and the TGI was 27.4 µM.

`O=c1c2cccc3cccc(c4n1CCCN=4)c32` registered a TGI of over 100 µM.

Take `CC1(C)OC2OC(COC(=O)C(c3ccccc3)c3ccccc3)C3OC(C)(C)OC3C2O1` (stereo not given): the TGI was over 100 µM.

In turn, `COCCOCCOCCC(=O)NC1CC2CCC1(C)C2(C)C` (stereo not given) came in with a TGI of over 100 µM.

The compound `O=C1c2ccoc2C(=O)c2oc(=O)ccc21` displayed a TGI of over 54.1 µM.

Take `CCOc1ccc(/C=C2/C(=O)N=C(N)N=C2N)cc1OCC`: the TGI was over 100 µM.

`O=S(=O)(O)c1ccc2c(N=Nc3c(O)ccc4ccccc34)cccc2c1` returned a TGI of over 100 µM.

For the compound `NNC(=O)N/N=C1\CNC(=O)C(=O)C1c1nc2ccccc2s1` (stereo not given), the TGI is over 100 µM.

Turning to `Nc1nc(-c2ccccc2)cc(-c2cc(Cl)ccc2O)n1`, the TGI is over 100 µM.

Consider `Cn1c(CC(O)c2nc3ccccc3n2C)nc2ccccc21` (stereo not given), for which the TGI was over 56.7 µM.

As to `Cc1ccc(-c2nc(C(Cl)Cl)nc3cc(C)nn23)cc1`, the GI50 was 1.19 µM and the TGI worked out at 3.9 µM.

For the compound `CC1CCC2c3c([nH]c4ccccc34)C3C(=O)N(c4ccccc4)C(=O)C3C2C1` (stereo not given), the TGI is over 250 µM.

Consider `CCOP(=O)(/C=C\n1ccc(=O)[nH]c1=O)OCC`, for which the TGI was over 100 µM.

In the case of `Clc1ccc(-c2nnc(-c3nsc4ccccc34)o2)cc1`, the TGI is over 100 µM.

Regarding `NC(N)=N/N=C/c1c(-c2ccc(Cl)cc2)nc2sc(Cl)cn12`, the TGI was 3.02 µM.

The compound `Cn1c(=O)c(C(=O)NC23CC4CC(CC(C4)C2)C3)c(O)c2ccccc21` registered a TGI of 65 µM.

Regarding `O=C1c2ccccc2-c2c1c1ccc([N+](=O)[O-])cc1c(=O)n2CCCCl`, the GI50 is 50.4 µM and the TGI was over 100 µM.

In turn, `Clc1cccc(C2SCc3nc4ccccc4n32)c1` (stereo not given) registered a TGI of over 100 µM.

Regarding `Cc1cc(C)nc(NC(=S)Nc2ccc(Cl)cc2)c1`, the TGI is over 100 µM.

For `CCCCOc1ccc(S(=O)(=O)/N=C(\N)Nc2ccc(Cl)cc2)cc1`, the TGI was determined as 27.8 µM.

With `c1csc(C(NC2=NCCO2)C2CC2)c1` (stereo not given), the TGI was over 100 µM.

`Nc1ncc(Sc2ccccc2C(=O)O)s1` returned a TGI of over 100 µM.

With `CO/C(=N\N=C(/c1ccccc1)C(F)(F)F)c1ccncc1`, the TGI was over 100 µM.

In turn, `CCN1C(=O)N2C(OC)c3ccccc3C(Br)C2(OC)C1=O` (stereo not given) came in with a TGI of over 100 µM.

Consider `Cc1cn2c(/C=C3/C(=O)Nc4ccc(C(=O)O)cc43)c(C)nc2s1`, for which the GI50 is over 100 µM and the TGI is over 100 µM.

For the compound `CC1CCN(c2cc(-c3cc4ccccc4o3)oc(=O)c2C#N)CC1`, the TGI is over 100 µM.

The compound `CCN(CC)C(=S)S` registered a TGI of over 100 µM.

In the case of `N=C(N)c1ccc(N=Nc2c(O)ccc3cc(O)ccc23)cc1`, the TGI was over 100 µM.

As for `CCN(CC)C(=O)CCCCCn1c2ccccc2c2c3c(c4c5ccccc5[nH]c4c21)C(=O)N(O)C3=O`, the GI50 is 19.3 µM and the TGI was over 100 µM.

For `C=CC(C)(O)CCC1C(=C)C(O)CC2C(C)(C)CCCC12C` (stereo not given), the TGI was 44.4 µM.

The compound `Cn1c(=O)n2n(c1=O)C(S(=O)c1ccccc1)C2` (stereo not given) registered a TGI of over 100 µM.

On to `CCN(CC)CCS(=O)(=O)CCNc1ccnc2cc(Cl)ccc12`, for which the GI50 is 11.5 µM and the TGI was over 87.7 µM.

Compound `CC(=O)Nc1cc(/C=C\C(=O)N2CC(CCl)c3c2cc(N)c2ccccc32)n(C)n1` (stereo not given) gave a TGI of 0.338 µM.

As to `CC(C)c1cc(C(C)C)c(Cl)c(Cl)c1O` (tested in a mixture with another compound), the TGI is over 100 µM.

As for `Cc1cc2c3c(c1)CCCN3CCC2`, the TGI was over 10 µM.

Regarding `CC(=O)OC1CC[C@@]2(C)C(=CC[C@@H]3[C@@H]2CC[C@]2(C)C(OC(C)=O)[C@H](n4ccnc4)C[C@@H]32)C1` (stereo not given in full), the TGI is over 100 µM.

Take `Cc1cc(OC(=O)Nc2ccc(Cl)cc2)ccc1C(=S)Nc1ccccc1`: the TGI is over 100 µM.

Regarding `Cc1ccccc1CNc1c2ccccc2nc2ccccc12`, the GI50 was 2.06 µM and the TGI is 5.41 µM.

Regarding `CC(C)(C)c1cc(C(OCCl)(C(F)(F)F)C(F)(F)F)c2c(c1)C(C(F)(F)F)(C(F)(F)F)OC21c2ccccc2C(=O)c2ccccc21`, the TGI was over 100 µM.

On to `CC(=O)c1sc2c(c1O)c(=O)n(-c1ccccc1)c(=S)n2-c1ccccc1`, for which the TGI is over 100 µM.

The compound `COc1cccc2c1[C@H]1OC(=O)NC1CCCCC2` (stereo not given in full) showed a TGI of over 100 µM.

For the compound `Cc1n(Cc2ccc3ccccc3n2)cc[n+]1Cc1ccc2ccccc2c1`, the GI50 is 2.96 µM and the TGI was 14.9 µM.

Consider `c1ccc2c(c1)[O][Sn][O]2`, for which the GI50 is 71.8 µg/mL and the TGI is over 150 µg/mL.

Compound `Cn1cnnc1SC(F)(F)c1nc2ccccc2o1` registered a TGI of over 100 µM.

Turning to `Cc1ccc(C(=O)N2C/C(=C/c3ccccc3)C(=O)/C(=C/c3ccccc3)C2)cc1`, the GI50 was over 100 µM and the TGI was over 100 µM.

On to `CCOC(=O)COc1cccc2occc(=O)c12`, for which the TGI is over 100 µM.

As for `O=C(/C=C/c1cccc(Oc2ccc(Cl)cc2)c1)c1ccccc1`, the GI50 was 115 µM and the TGI worked out at 263 µM.

For the compound `O=C(O)c1ccccc1CC(Cc1ccccc1)C(=O)O` (stereo not given), the TGI was over 100 µM.

Regarding `Nc1ncnc2c1ncn2CCOC(c1ccccc1)P(=O)(O)O` (stereo not given), the TGI was over 100 µM.

Compound `Cn1c(SCc2c[nH]c3ccccc23)nnc1-c1ccc(Cl)cc1Cl` yielded a TGI of 94 µM.

For the compound `CSc1nc(C)c(CCOC(C)=O)c(N=P(c2ccccc2)(c2ccccc2)c2ccccc2)n1`, the TGI was over 10 µM.

As to `CCOC(=O)C(C)(Cc1ccc(O)cn1)NC(=O)c1ccccc1` (stereo not given), the TGI is over 100 µM.

`CCC1=C(c2ccc(OC)cc2)CC[C@]2(CCNC2=O)[C@@H]1C`: the TGI was over 100 µM.

Compound `C=C1C(=O)O[C@@H]2[C@H]1C[C@H](I)[C@@]1(C)CC[C@H](O1)[C@](C)(I)CCCC(C)[C@@H]2O` (stereo not given in full) showed a TGI of 29.8 µM.

For `O=S(=O)(Cc1ccccc1)SCc1ccccc1`, the TGI is over 100 µM.

In turn, `O=C1Nc2ccccc2C1S(=O)(=O)c1ccccc1` (stereo not given) displayed a TGI of over 100 µM.

Compound `O=C(Nc1ccc(Cl)c(Cl)c1)C1C(=O)N(c2ccc(Cl)c(Cl)c2)C(=O)/C1=N\O` (stereo not given) registered a TGI of over 100 µM.

As for `O=CC(O)C(O)C(OC1OC(CO)C(O)C(O)C1O)C(O)CO` (stereo not given) (tested in a mixture with another compound), the TGI was over 100 µM.

With `CC(C)CCCC(C)[C@H]1CCC2[C@@H]3CCC4Cc5nc6c(nc5C[C@]4(C)C3CC[C@@]21C)CC1CC[C@@H]2C(CC[C@@]3(C)C2CC[C@@H]3O)[C@@]1(C)C6` (stereo not given in full), the TGI is over 100 µM.

Consider `Cc1ccc(NC(=O)c2ccc(NC3=C(Cl)C(=O)N(Cc4ccccc4)C3=O)cc2)cc1Cl`, for which the GI50 is 19.3 µM and the TGI was over 100 µM.

In the case of `Nc1ncnc2c1N=C(c1ccccc1)CC(c1ccccc1)N2` (stereo not given), the TGI was over 100 µM.

In the case of `O=C1c2ccccc2-n2c1nc1ccc(Cl)cc1c2=O`, the TGI was over 100 µM.

As for `COc1cc2c(cc1OC)C(SC)C(=O)N(Cc1cccc(OC)c1OC)CC2` (stereo not given), the TGI was over 100 µM.

The compound `C/C(CC(=O)Nc1cccc(Cl)c1C)=N\N=C(N)N` gave a TGI of over 100 µM.

`CCOP(=O)(/C=C/n1cnc2c(=O)n(C(C)=O)c(N)nc21)OCC`: the TGI is over 100 µM.

Regarding `CN1CCOCCOCCOc2ccccc2NC(=O)c2nc(cnc2N)-c2ccc(cc2)S1(=O)=O`, the GI50 is 3.69 µM and the TGI was over 100 µM.

`O=C(/C=C\c1ccc(/C=C/C(=O)Nc2cccc(C3=NCCCN3)c2)cc1)Nc1cccc(C2=NCCCN2)c1`: the TGI was over 100 µM.

In the case of `CC(C)C/C(=N\NC(=O)c1ccncc1)c1cc(Cl)ccc1O`, the GI50 was 0.205 µM and the TGI was 65.3 µM.

For the compound `CSC1(Cc2ccccn2)C(=O)Nc2cccc([N+](=O)[O-])c21` (stereo not given), the TGI is over 100 µM.

Compound `COC(=O)C1(Cc2ccccc2)Cc2c(C)ccc(C)c2C1=O` (stereo not given) yielded a TGI of over 100 µM.

`CCOC(=O)[C@@H]1C[C@@H]1c1ccc(O)c(O)c1`: the TGI is over 100 µM.

For the compound `O/N=C1\CSc2ccccc2C1`, the TGI is over 100 µM.

Consider `CCOC(=O)c1cc2cc(OCc3ccccc3)ccc2[nH]1`, for which the GI50 is over 100 µM and the TGI was over 100 µM.

With `Cc1ccc(NC2=CC(=O)C(=O)c3ccccc32)c(C)c1`, the GI50 was 2.11 µM and the TGI was determined as 4.22 µM.

As to `CCN(CCNc1ccc(C)c2sc3cc(Cl)ccc3c(=O)c12)CC(C)(C)O`, the GI50 is 6.64 µM and the TGI amounted to 23.7 µM.

In the case of `C=CC[PH+](c1ccccc1)c1ccccc1.C=CC[PH+](c1ccccc1)c1ccccc1.[Pt+2].[S-]c1ncccn1.[S-]c1ncccn1`, the GI50 is over 100 µM and the TGI is over 100 µM.

Regarding `CC(=O)Nc1sccc1S(=O)(=O)c1ccc(Cl)cc1`, the TGI is over 100 µM.

`CCN(CC)Cc1ccc(Nc2c3ccccc3nc3ccccc23)cc1` yielded a TGI of 13.6 µM.

In turn, `O=C1NC2=NN=C(c3ccc(Br)cc3)CN2NC12c1ccccc1-c1ccccc12` showed a TGI of over 100 µM.

Regarding `CC(N)=O.[Cl][Pt][Cl].[NH-]c1ccn(C2OC(CO)C(O)C2O)c(=O)n1` (stereo not given), the TGI was over 100 µM.

Consider `COc1cc(OC)c(/C=C/C(=O)c2c(N)cc(OC)cc2OC)c(OC)c1`, for which the GI50 was 10.1 µM and the TGI was over 100 µM.

With `CCOC(=O)n1c2ccccc2c(=O)n1CCO`, the TGI was over 100 µM.

Compound `COc1ccc2c(C(=O)c3c(C)n(CCN4CCOCC4)c4ccccc34)cccc2c1` displayed a TGI of over 100 µM.

On to `COc1cccc(Nc2nc(NS(=O)(=O)c3cc(C)c(Cl)cc3S)n[nH]2)c1`, for which the TGI is over 100 µM.

On to `Cc1cc2c(cc1C)[n+](=O)c(C(=O)/C=C/c1ccccc1[N+](=O)[O-])c(C)n2[O-]`, for which the TGI is over 100 µM.

In turn, `NC(N)=N/N=C\c1c(-c2ccccc2)nc2sccn12` had a TGI of 31.2 µM.
